{"source": "PubChem BioAssay AID687022", "about": "(Broad Institute, 2013)", "note": "About 360 (36%) of roughly 1,000 compounds were called active.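 Rule for the calls: active = Fitted curve of melting temperature shift crosses the 1.0 threshold at or below the sample's highest valid tested concentration; inconclusive = Flat fit with activity 30 to 70, or invalid fit; inactive = Opposite direction, flat within 30, or no crossing.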 Most of the strongest results are missing from this list.", "data": [{"target": "Fibroblast growth factor 22 (Homo sapiens) (UniProt Q9HCT0)", "sequence (Q9HCT0 whole entry, looked up)": "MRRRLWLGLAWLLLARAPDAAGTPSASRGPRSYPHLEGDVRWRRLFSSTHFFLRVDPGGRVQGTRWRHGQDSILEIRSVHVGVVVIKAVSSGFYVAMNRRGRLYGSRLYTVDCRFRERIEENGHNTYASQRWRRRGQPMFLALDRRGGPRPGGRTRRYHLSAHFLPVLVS", "assay": "binders of human FGF22 protein, dose response, FGF22 synaptogenesis inhibitor project, biophysical, thermal shift, cherry-pick (AID 687022); note: reference of the scale not given here", "settings": "recombinant FGF22 thermal shift, SYPRO orange melting; at 38 µM (top of the series) unless noted", "values": [{"compound": "COc1ccc(Br)cc1S(=O)(=O)Nc1ncccc1C", "Tm shift activity": "inactive: -0.096%"}, {"compound": "CCC(=O)N1CC2(CCN(Cc3nccs3)CC2)c2c(n(C)c3cc(OC)ccc23)[C@@H]1CO", "Tm shift activity": "inactive: -0.152%"}, {"compound": "C[C@@H]1CN([C@@H](C)CO)C(=O)c2cccc(NS(=O)(=O)c3cn(C)cn3)c2O[C@@H]1CN(C)S(=O)(=O)c1ccc(Cl)cc1", "Tm shift activity": "inactive: 0.326%"}, {"compound": "O=C(NN1C(=O)C2C3C=CC(O3)C2C1=O)c1ccccc1", "note": "(centres undefined)", "Tm shift activity": "inactive: -0.131%"}, {"compound": "CO[C@@H]1CN(C)C(=O)c2cc(NC(=O)C3CCCC3)ccc2OC[C@H](C)N(CCC(F)(F)F)C[C@H]1C", "Tm shift activity": "inactive: -0.068%"}, {"compound": "CCOC(=O)[C@]12CCCC=C1N(Cc1ccccc1)C(=O)[C@H](CC(=O)NCC1CCCCC1)C2", "Tm shift activity": "inactive: 0.402%"}, {"compound": "O=C(C[C@@H]1CC[C@@H]2[C@H](COC[C@@H](O)CN2C(=O)Nc2cccc(Cl)c2)O1)NCC1CCCCC1", "Tm shift activity": "inactive: 0.183%"}, {"compound": "CCCN(C)C[C@H]1Oc2cc(C#Cc3cccnc3)ccc2S(=O)(=O)N([C@H](C)CO)C[C@@H]1C", "Tm shift activity": "inactive: 0.518%"}, {"compound": "CCNC(=O)C1(C)CCCN(C(=O)C2(c3ccc(Cl)cc3)CCCC2)C1", "note": "(centres undefined)", "Tm shift activity": "inactive: -0.084%"}, {"compound": "C[C@@H]1CN([C@H](C)CO)S(=O)(=O)c2ccc(C#CCN(C)C)cc2O[C@@H]1CN(C)Cc1ccccc1F", "Tm shift activity": "inactive: 0.118%"}, {"compound": "COc1cccc(NC(=O)OCCN2CCN(Cc3ccccc3)CCC2=O)c1", "Tm shift activity": "inactive: 0.08%"}, {"compound": "Cc1ccc(S(=O)(=O)c2nnn(-c3cccc(F)c3)c2N)cc1", "Tm shift activity": "inactive: 0.058%"}, {"compound": "C[C@H]1CCCCO[C@H](CN(C)Cc2ccncc2)[C@@H](C)CN([C@@H](C)CO)C(=O)c2cc(NC(=O)c3ccncc3)ccc2O1", "Tm shift activity": "inactive: 0.186%"}, {"compound": "O=C(CCc1ccc(S(=O)(=O)N2CCOCC2)cc1)Nc1ccccc1F", "Tm shift activity": "inactive: -0.061%"}, {"compound": "CNC[C@H]1Oc2ccc(NC(=O)C3CCCCC3)cc2C(=O)N([C@@H](C)CO)C[C@H]1C", "Tm shift activity": "inactive: -0.162% [at 42 µM]"}, {"compound": "CO[C@H]1CN(C)C(=O)c2cc(NC(=O)CC(F)(F)F)ccc2OC[C@@H](C)N(C(C)=O)C[C@H]1C", "Tm shift activity": "inactive: -0.187% [at 42 µM]"}, {"compound": "c1ccc(-c2cc3nc(NCc4ccc5c(c4)OCO5)ccn3n2)cc1", "Tm shift activity": "inactive: -2.87%"}, {"compound": "COc1ccccc1NC(=O)N1[C@H](C#N)[C@H](c2ccccc2)[C@H]1CO", "Tm shift activity": "inactive: -0.014% [at 42 µM]"}, {"compound": "C[C@H]1CN([C@@H](C)CO)C(=O)c2cc(NC(=O)CCN3CCOCC3)ccc2O[C@H]1CN(C)C(=O)NC1CCCCC1", "Tm shift activity": "inactive: 0.046% [at 42 µM]"}, {"compound": "O=C(OCC(=O)c1ccc(Cl)s1)c1ccc2ccccc2n1", "Tm shift activity": "inactive: 0.073%"}, {"compound": "O=C(C1CCCC1)N1CC2(C1)[C@H](c1ccccc1)[C@@H](CO)N2CC1CC1", "Tm shift activity": "inactive: -0.131% [at 42 µM]"}, {"compound": "Cc1nn(CCOc2ccccc2Cl)c(C)c1[N+](=O)[O-]", "Tm shift activity": "inactive: 0.301%"}, {"compound": "CCCCN(C(=O)c1ccc2c(c1)OCCO2)c1c(N)n(CCCC)c(=O)[nH]c1=O", "Tm shift activity": "inactive: 0.081%"}, {"compound": "N#C[C@H]1[C@@H](c2ccc(C#CCC3CCCC3)cc2)[C@H](CO)N1C(=O)CN1CCOCC1", "Tm shift activity": "inactive: -0.608% [at 42 µM]"}, {"compound": "O=C(N[C@@H]1C=C[C@H](CC(=O)N2CCCCC2)O[C@H]1CO)c1cccc(F)c1", "Tm shift activity": "inactive: 0.229%"}, {"compound": "Cc1noc(C)c1S(=O)(=O)Nc1ccc2c(c1)CC(=O)N([C@@H](C)CO)C[C@@H](C)[C@@H](CN(C)Cc1ccc(Cl)c(Cl)c1)O2", "Tm shift activity": "inactive: -1.12% [at 42 µM]"}, {"compound": "C[C@@H]1CN([C@@H](C)CO)S(=O)(=O)c2ccc(C3=CCCC3)cc2O[C@@H]1CN(C)C(=O)C1CCCCC1", "Tm shift activity": "inactive: 0.63%"}, {"compound": "O=C(Cn1cc(COc2ccc(Br)cc2[N+](=O)[O-])nn1)c1ccc(O)cc1", "Tm shift activity": "inactive: 0.225%"}, {"compound": "CN(c1ccccc1)S(=O)(=O)c1cccc(NC(=O)c2ccc3ncsc3c2)c1", "Tm shift activity": "inactive: -0.176%"}, {"compound": "Cc1cccc(Cn2ncc(Cl)c(Cl)c2=O)c1", "Tm shift activity": "inactive: -0.187%"}, {"compound": "C[C@H](CO)N1C[C@H](C)[C@H](CN(C)C)Oc2ccc(NC(=O)NC3CCCCC3)cc2CC1=O", "Tm shift activity": "inactive: -0.011% [at 42 µM]"}, {"compound": "O=C(NCC[C@H]1CC[C@@H](NC(=O)C2CCOCC2)[C@H](CO)O1)Nc1ccc(Cl)cc1", "Tm shift activity": "inactive: 0.22% [at 42 µM]"}, {"compound": "COCC(=O)NC[C@H]1[C@H](c2ccc(C3=CCCC3)cc2)[C@@H](CO)N1C(C)=O", "Tm shift activity": "inactive: -0.131% [at 42 µM]"}, {"compound": "O=C(C1CCOCC1)N1CC2(C1)[C@@H](c1ccccc1)[C@@H](CO)N2Cc1ccccc1F", "Tm shift activity": "inactive: -0.177%"}, {"compound": "O=C(CCN1CCCCC1)N[C@@H]1CC[C@H](CCNS(=O)(=O)c2ccc(F)cc2)O[C@H]1CO", "Tm shift activity": "inactive: -0.166%"}, {"compound": "C=CCN(C(=O)c1csnn1)C(C(=O)NC1CCCCC1)c1ccc(Cl)cc1", "note": "(centres undefined)", "Tm shift activity": "inactive: -0.164%"}, {"compound": "CCCn1c(CCC(=O)O)nc2cc(S(=O)(=O)N3CCCC3)ccc21", "Tm shift activity": "inactive: -0.298%"}, {"compound": "C[C@H](CO)N1C[C@H](C)[C@@H](CN(C)S(=O)(=O)c2ccccc2)Oc2c(NC(=O)C3CC3)cccc2C1=O", "Tm shift activity": "inactive: -0.058%"}, {"compound": "C[C@H]1CN([C@@H](C)CO)C(=O)Cc2cc(NC(=O)Cc3cn(C)c4ccccc34)ccc2O[C@@H]1CN(C)Cc1ccccc1", "Tm shift activity": "inactive: 0.45% [at 42 µM]"}, {"compound": "COc1cccc(CNC(=O)C2(C)CCCCN2C)c1", "note": "(centres undefined)", "Tm shift activity": "inactive: -0.044%"}, {"compound": "CCN1CCc2c(sc(NC(=O)c3ccc(S(=O)(=O)N(CC)c4ccccc4)cc3)c2C(N)=O)C1", "Tm shift activity": "inactive: -0.12%"}, {"compound": "Cc1nn(-c2ccccc2)c(Cl)c1/C=N/NC(=O)c1cccnc1", "Tm shift activity": "inactive: -0.238%"}, {"compound": "CNC[C@H]1Oc2ccc(NC(=O)Nc3ccc(OC)cc3)cc2C(=O)N([C@H](C)CO)C[C@@H]1C", "Tm shift activity": "inactive: -0.083% [at 42 µM]"}, {"compound": "O=C(C[C@H]1C[C@@H]2c3cc(NC(=O)Nc4ccc(C(F)(F)F)cc4)ccc3O[C@@H]2[C@@H](CO)O1)NCC1CC1", "Tm shift activity": "inactive: -0.161% [at 10 µM]"}, {"compound": "CCCCNC(=O)c1onc(CSc2ccc(C(C)C)cc2)c1C(=O)O", "Tm shift activity": "inactive: 0.765% [at 5 µM]"}, {"compound": "C=C(C1=CCN(S(=O)(=O)C(C)(C)C)[C@H]1CCO)c1ccccc1", "Tm shift activity": "inactive: -0.093%"}, {"compound": "Cc1nn(C)cc1NC(=O)C[C@H]1CC[C@@H]2[C@@H](COc3ccc(NC(=O)NC(C)C)cc3C(=O)N2C)O1", "Tm shift activity": "inactive: -0.291%"}, {"compound": "CC(C)(C)NC(=O)CN(C(=O)CNS(=O)(=O)c1ccc(Cl)cc1)c1ccc2c(c1)OCCO2", "Tm shift activity": "inactive: -0.101%"}, {"compound": "O=C(C[C@@H]1C=C[C@H](NC(=O)c2cccc(F)c2)[C@H](CO)O1)NCc1ccccc1", "Tm shift activity": "inactive: -0.119%"}, {"compound": "COCC(=O)N1[C@H](CO)[C@H]2c3ccccc3NC[C@H]21", "Tm shift activity": "inactive: -0.063%"}, {"compound": "CC(=O)Nc1cccc(C(=O)N2CCC(n3nccc3NC(=O)CC(C)C)CC2)c1", "Tm shift activity": "inactive: 0.588%"}, {"compound": "O=C(c1ccccc1F)N1CC(=O)N2[C@H](C1)[C@H](c1ccc(-c3ccc(F)cc3)cc1)[C@@H]2CO", "Tm shift activity": "inactive: 0.218% [at 42 µM]"}, {"compound": "CC(=O)N1c2ccc(S(=O)(=O)N3CCC(C(=O)NCc4ccc(F)cc4)CC3)cc2CC1C", "note": "(centres undefined)", "Tm shift activity": "inactive: -0.179%"}, {"compound": "O=C(OCC(=O)c1cccs1)c1cccc(C(=O)OCC(=O)c2cccs2)n1", "Tm shift activity": "inactive: -0.182%"}, {"compound": "CO[C@H]1CN(C)C(=O)c2ccc(NS(=O)(=O)c3ccc(Cl)cc3)cc2OC[C@@H](C)N(C(=O)NC(C)C)C[C@H]1C", "Tm shift activity": "inactive: -0.141% [at 42 µM]"}, {"compound": "CNC[C@H]1Oc2ccc(NC(=O)Cc3cn(C)c4ccccc34)cc2C(=O)N([C@H](C)CO)C[C@H]1C", "Tm shift activity": "inactive: -0.055% [at 42 µM]"}, {"compound": "C[C@H](CO)N1C[C@H](C)[C@H](CN(C)S(=O)(=O)c2ccc(F)cc2)OCc2cnnn2CCCC1=O", "Tm shift activity": "inactive: 0.216% [at 42 µM]"}, {"compound": "O=C1C2C(C(=O)N1CCc1ccccc1)C1C=CC2C12CC2", "note": "(centres undefined)", "Tm shift activity": "inactive: -0.247%"}, {"compound": "COc1ccc2c3c([nH]c2c1)[C@H](CO)N(C(C)=O)CC31CN(C(=O)c2ccc3c(c2)OCO3)C1", "Tm shift activity": "inactive: -0.297%"}, {"compound": "C[C@H]1CN([C@@H](C)CO)S(=O)(=O)c2ccc(C#Cc3ccccc3F)cc2O[C@H]1CN(C)C(=O)Cc1cccnc1", "Tm shift activity": "inactive: 0.492% [at 42 µM]"}, {"compound": "CNC[C@@H]1Oc2c(NS(=O)(=O)c3ccc(OC)cc3)cccc2C(=O)N([C@@H](C)CO)C[C@@H]1C", "Tm shift activity": "inactive: -0.136%"}, {"compound": "O=C(C[C@@H]1CC[C@H](NC(=O)c2ccc3c(c2)OCO3)[C@H](CO)O1)NCc1ccc(Oc2ccccc2)cc1", "Tm shift activity": "inactive: -0.218% [at 42 µM]"}, {"compound": "CC1(C(=O)NS(=O)(=O)c2cccc(Cl)c2)CCN1C(=O)Cc1ccc(-c2ccccc2)cc1", "note": "(centres undefined)", "Tm shift activity": "inactive: 0.77% [at 5 µM]"}, {"compound": "C[C@@H]1CN([C@@H](C)CO)C(=O)CCCn2nncc2CO[C@H]1CN(C)Cc1ccccc1C(=O)O", "Tm shift activity": "inactive: -0.141% [at 42 µM]"}, {"compound": "O=C(COc1ccccc1)NCC(=O)NC1CCCCC1", "Tm shift activity": "inactive: 0.061%"}, {"compound": "O=C(CNc1ccccc1OC(F)F)N1CCc2ccccc21", "Tm shift activity": "inactive: 0.054%"}, {"compound": "COc1cc(C(=O)NC(=S)Nc2ccccc2[N+](=O)[O-])cc(OC)c1OC", "Tm shift activity": "inactive: -0.198% [at 19.5 µM]"}, {"compound": "CCS(=O)(=O)N1CC(=O)N2[C@H](CO)[C@@H](c3ccc(-c4ccccc4F)cc3)[C@@H]2C1", "Tm shift activity": "inactive: -0.064%"}, {"compound": "C[C@@H]1CN([C@H](C)CO)S(=O)(=O)c2ccc(-c3cncnc3)cc2O[C@@H]1CN(C)C(=O)CN(C)C", "Tm shift activity": "inactive: 0.231%"}]}]}
